Screen size: about 43,000 compounds; about 200 (0.47%) were called active. The inconclusive results got no clear call from the source; some entries with a clear call stand among them for comparison. Calls come from the whole dose curve; as a rule, active = well fitted cell-killing curve with a large enough effect; inconclusive = small, poorly fitted or top-dose-only effect, or effect the other way; inactive = flat fitted curve, though single readings scatter. A potency beside an inconclusive call is a rough fit, not a confirmed value.
Experiment: Cell viability qHTS assay in S16 Pmp22-F2sN cells; note: nearly all actives have a fitted effect of over 65% in size
Settings: S16 Pmp22-F2sN Schwann cells (luciferase reporters placed in the Pmp22 gene) viability, CellTiter-Glo, 24 h; series mostly up to 57.5 µM
Text: Assay Provider: Jim Inglese Ph.D. National Center for Advancing Translational Science, National Institutes of Health, Rockville, MD CMT is a heterogeneous group of neurological disorders that affect approximately 1 in 2,500 people. In particular, the most common form of CMT, CMT1A is genetically linked to the duplication of the PMP22 gene which leads to Schwann cell overexpression, thus manifesting itself as a typical case of dose-sensitive diseases. To identify small molecule compounds that can mediate the expression of PMP22 we developed a phenotypic assay screening strategy by utilizing genome editing techniques to construct Schwann cell lines containing novel reporter technology to monitor the transcriptional or translational regulation of PMP22. For high sensitivity we use a bioluminescent reporter system embedded in the 3' UTR of the PMP22 gene (S16(c9) Pmp22-F2sN) to identify compounds that inhibit gene expression. […] We can further discriminate the effect of all transcriptionally active molecules on PMP22 translation or stability with an assay that incorporates a short NLuc peptide (HiBiT) at the C-terminus of expressed PMP22 (S16(f8) PMP22-HiBiT) allowing alpha complementation and luminescence detection of membrane-associated PMP22 protein. These assays were screened against the NCATS Sytravon Library Collection. Miniaturization of these assays to 1536-well plate format for quantitative high throughput screening (qHTS) yielded rich data sets immediately from the qHTS assay (S16(c9) Pmp22-F2sN), when compared with data from a cell viability assay (Cell TiterGlo) to identify compounds that decreased the output signals through cellular toxicity to streamline the selection process of actives for subsequent characterization using the HiBiT assay (S16(f8) PMP22-HiBiT).
Cell viability assay in S16 Pmp22-F2sN cells PROTOCOL TABLE (format as described by Inglese J, Shamu CE and Guy RK. 2007) SEQUENCE No. (e.g., 1, 2, 3, etc.); […] (e.g., Cells, Incubation, Reagent, etc.); VALUE and DESCRIPTION. 1. Cells. Add 500-1,000 cells in 4 uL in growth media (DMEM High Glucose, No Phenol Red media + 10% heat-inactivated FBS + 1% Pen/Strep supplemented media) per well into Greiner 1536-well white/solid bottom high base, TC-treated plates. 2. Compounds. Library compounds and controls added at 23nL per well, transferred by Pin Tool. 3. Incubation. Incubate plates at 37C, 5% CO2, 95% RH for 24 h. 4. Reagent. Add 3uL CellTiter-Glo per well of Greiner 1536-well plates. 5. Incubation. Incubate plates at room temperature for 15 min., protect from light. 6. Detector. FLuc luminescence measured using CCD-based camera (Viewlux). NOTES (numbers refer to Sequence numbers above; values are from representative experiments) 6. Luminescence Read: Clear filter; Exposure = 1 sec, Gain = High, Speed = Slow, Binning = 2X REFERENCES: 1. Inglese J, Shamu CE and Guy RK, Reporting data from high throughput screening of small molecule libraries, Nature Chemical Biology, 2007, 3(8): 438-441. doi.org/10.1038/nchembio0807-438 2. Yasgar A, Shinn P, Jadhav A, Auld DS, Michael S, Zheng W, Austin CP, Inglese J and Simeonov A, Compound Management for Quantitative High-Throughput Screening. J. Assoc. Lab. Auto., 2008, 13: 79-89. doi: 10.1016/j.jala.2007.12.004
Potency is the fitted concentration of half-maximal effect; tags give direction and shape of the fitted curve.

SMILES	Potency
CN(C)CCNc1ncnc2c1cnn2-c1cccc(Cl)c1	inconclusive: 39.8 µM [cytotoxic, single point]
O=C(Nc1cccc(NC(=O)c2ccccc2F)c1)c1ccccc1	inconclusive: 31.6 µM [rising, single point]
CCOC(=O)c1ccc(N2C(=O)c3n[nH]c(-c4ccco4)c3C2c2ccc(OCC)cc2)cc1 (stereo not given)	inconclusive: 39.8 µM [cytotoxic, single point]
O=C(C1CCC1)N1CCCc2cc(S(=O)(=O)N3CCN(c4ccccc4)CC3)ccc21	inconclusive: 28.2 µM [cytotoxic, partial curve, poor fit]
O=C(CSC1=Nc2ccccc2N=C(c2ccc(F)cc2)C1)Nc1cccc(C(F)(F)F)c1	inconclusive: 6.31 µM [rising, single point]
Cc1ccccc1OCC(=O)OCc1cc(=O)n2nc(C3CC3)sc2n1	inconclusive: 39.8 µM [cytotoxic, partial curve, poor fit]
COc1ccc(OC)c(NC(=O)c2c(NCc3sccc3C)sc3c2CCCCC3)c1	inactive
CCC(C(=O)OCc1cc(=O)n2nc(C)sc2n1)c1ccccc1 (stereo not given)	inconclusive: 25.1 µM [cytotoxic, single point]
Cc1nnc(N2CCC(C(=O)Nc3ccc(F)cc3)CC2)c2nn(-c3ccc(Cl)cc3)c(C)c12	inconclusive: 31.6 µM [cytotoxic, single point]
Cc1cc(NC(=O)c2cc(-c3cccc(Cl)c3)on2)nn1Cc1ccc(Cl)cc1	inactive
COc1ccc(Br)c2c1-c1nc(NC(=O)c3ccccc3F)sc1C2	inconclusive: 20 µM [cytotoxic, partial curve, poor fit]
CCc1ccc(-c2[nH]nc3nc(-c4ccc(OC)cc4)cc(C(=O)NCCCOC)c23)cc1	inconclusive: 10 µM [cytotoxic, partial curve, poor fit]
O=C(c1ccccc1Cl)N(Cc1ccco1)c1ccccn1	inactive
CCCCOc1ccc(CNC(=O)c2ccc(NC(=O)N3CCCCc4ccccc43)cc2)cc1	inconclusive: 12.6 µM [cytotoxic, partial curve, poor fit]
Cc1ccc(-n2nc(CO)c(C(=O)NC(C)CCCc3ccccc3)n2)cc1C (stereo not given)	inconclusive: 39.8 µM [cytotoxic, partial curve, poor fit]
CCc1ccc(NC(=O)C(=O)NCC(c2cccnc2)N2CCN(Cc3ccccc3)CC2)cc1 (stereo not given)	inconclusive: 8.91 µM [cytotoxic, partial curve, poor fit]
O=C(NCCc1ccccc1)c1ccc(Cn2c(SCc3cccc(F)c3)nc3cccnc32)cc1	inconclusive: 25.1 µM [cytotoxic, single point]
COc1cc2nc(SCC(=O)Nc3c(C)cc(C)cc3C)n3nc(CCn4c(C)nc5ccccc54)nc3c2cc1OC	inconclusive: 11.2 µM [cytotoxic, partial curve, poor fit]
O=C(CCC1N=C2c3ccccc3N=C(SCc3ccc(Cl)cc3)N2C1=O)NCCc1ccccc1 (stereo not given)	inconclusive: 31.6 µM [cytotoxic, single point]
CCCn1c2ccccc2c2cnn(CC(=O)N(C)c3ccccc3CC)c(=O)c21	inconclusive: 25.1 µM [cytotoxic, single point]

SMILES	Potency
CCc1ccccc1NC(=O)Nc1ccc2c(c1)N(CC)C(=O)c1ccccc1S2	inconclusive: 7.94 µM [cytotoxic, partial curve, poor fit]
CCOc1ccccc1CNC(=O)c1cc2n(n1)CCCN(Cc1ccc(C)cc1)C2=O	inconclusive: 20 µM [cytotoxic, single point]
O=C(Cn1c(=O)oc2cc(S(=O)(=O)N3CCCCCC3)ccc21)NCc1ccccc1Cl	inconclusive: 10 µM [cytotoxic, partial curve]
Cc1ccc(C)c(CN2CCC(CNC(=O)Nc3ccc(Br)cc3F)CC2)c1	active: 28.2 µM
Cc1ccc(Cl)cc1NC(=O)Cn1c(=O)n(CCCS(=O)(=O)C2CCCCC2)c(=O)c2ccccc21	inconclusive: 39.8 µM [cytotoxic, single point]
COc1ccc(CNC(=O)c2nc(SC(C)C)ncc2Cl)cc1	inactive
Cc1nc(Nc2ccc(Cl)cc2)cc(-c2ccccc2)n1	inconclusive: 39.8 µM [cytotoxic, single point]
COCCCNC(=O)c1sc2nc3n(c(=O)c2c1C)CCC3	inconclusive: 0.282 µM [rising, full curve]
CCOc1ccc(CCNC(=O)CCc2c(C)nc3c(-c4ccccc4)c(C)nn3c2C)cc1OCC	inactive
Cc1c(C(=O)Nc2cccc(C(F)(F)F)c2)sc2nc3n(c(=O)c12)CCCC3	inactive
COc1cccc(NC(=O)Cn2c(=O)n(-c3ccc(Cl)cc3)c(=O)c3oc4ccccc4c32)c1	inactive
CCN(CC)CCCNC(=O)CSc1c2c(nc3cc(Cl)ccc13)CCCC2	inconclusive: 39.8 µM [cytotoxic, single point]
Cc1cc(C)c2nc(N(Cc3cccnc3)C(=O)c3ccc(S(=O)(=O)N(C)C)cc3)sc2c1	inconclusive: 39.8 µM [cytotoxic, single point]
Cc1ccccc1Nc1sc(C(=O)c2ccccc2)c(N)c1C(=O)NCc1ccc(Cl)cc1	inconclusive: 39.8 µM [cytotoxic, single point]
COc1cc(OC)c(NC(=O)CC(c2cccs2)N2Cc3ccccc3C2=O)cc1Cl (stereo not given)	inconclusive: 28.2 µM [cytotoxic, single point]
CN(C)S(=O)(=O)n1cc(/C=C(\NC(=O)c2ccccc2Cl)C(=O)NCCCn2ccnc2)c2ccccc21	inconclusive: 0.251 µM [rising, full curve, poor fit]
O=C(NCCc1ccccc1Cl)c1ccc2c(c1)nc1n2CCOC1	inactive
CCc1nn(C(C)C(=O)N2CCN(c3cccc(C(F)(F)F)c3)CC2)c(=O)c2cc3occc3n12 (stereo not given)	inconclusive: 17.8 µM [cytotoxic, partial curve, poor fit]
COc1cc(OC)cc(-c2nc3nc(C)c(CCC(=O)Nc4ccc(F)cc4F)c(C)n3n2)c1	inconclusive: 7.94 µM [rising, single point]
CCOc1ccc(NC(=O)CCC(=O)N2CC(C)Oc3ccc(C)cc32)cc1 (stereo not given)	inactive

SMILES	Potency
COc1cccc(CNCCSc2nnnn2C)c1OCc1ccccc1	inconclusive: 35.5 µM [cytotoxic, partial curve, poor fit]
COC(=O)CC1Oc2ccccc2-n2cc(-c3ccc(C)cc3)nc21 (stereo not given)	inconclusive: 14.1 µM [rising, partial curve, poor fit]
COc1cccc(-c2cn3c(n2)sc2cc(C(=O)NCCCc4ccccc4)ccc23)c1	inconclusive: 20 µM [cytotoxic, partial curve, poor fit]
O=C(CC1(O)C(=O)N(CCc2ccccc2)c2ccc(Br)cc21)c1ccc(F)cc1 (stereo not given)	inconclusive: 31.6 µM [cytotoxic, single point]
COc1ccc(CNC(=O)c2ccc(NC(=O)N3CC4CCCN4c4ccccc43)cc2)cc1 (stereo not given)	inconclusive: 28.2 µM [cytotoxic, partial curve, poor fit]
Cc1ccc(-n2ncc(C(=O)NCCc3ccccc3)c2C2CCN(C(=O)OC(C)(C)C)CC2)c(C)c1	inconclusive: 28.2 µM [cytotoxic, partial curve, poor fit]
Cc1nc(-c2ccc(S(=O)(=O)Nc3ccc(C#N)cc3)cc2)co1	inactive
COc1cc2cc(CNc3ccccc3)c(=O)n(CC(=O)Nc3ccccc3)c2cc1OC	inconclusive: 20 µM [cytotoxic, single point]
COc1cc(C(=O)OCc2cc(=O)n3nc(C4CCCCC4)sc3n2)cc(OC)c1OC	inconclusive: 8.91 µM [cytotoxic, partial curve]
CC(C)(C)c1ccc(C(=O)Nc2ccc3c(c2)CCCN3C(=O)c2cccs2)cc1	inconclusive: 31.6 µM [cytotoxic, partial curve, poor fit]
Cc1ccc(OCC(=O)Nc2nnc(S(=O)(=O)N3c4ccccc4CC3C)s2)cc1 (stereo not given)	inactive
CC(=O)N1CCc2nc3sc(C(=O)c4ccc(F)cc4)c(N)c3c(C(F)(F)F)c2C1	inconclusive: 39.8 µM [cytotoxic, single point]
Cc1nnc(N2CCC(C(=O)N3CCCCC3)CC2)c2nn(-c3ccc(Cl)cc3)c(C)c12	inconclusive: 35.5 µM [cytotoxic, single point]
CCc1ccc(NC(=O)CN(c2ccc(C)cc2)S(=O)(=O)c2cccs2)cc1	inactive
Cc1ccc(Nc2nnc(-c3ccc(C)c(S(=O)(=O)N4CCN(C)CC4)c3)c3ccccc23)cc1	inconclusive: 31.6 µM [cytotoxic, single point]
CCC1CN(C(=O)N2CCC(C(=O)NCCc3ccccc3Cl)CC2)c2cc(C)ccc2O1 (stereo not given)	inconclusive: 39.8 µM [cytotoxic, single point]
COc1ccc(CCN2C(=O)c3[nH]nc(-c4ccccc4O)c3C2c2ccc(OC)cc2)cc1 (stereo not given)	inconclusive: 39.8 µM [cytotoxic, single point]
O=S(=O)(c1ccc(Cl)cc1)c1nc(-c2ccco2)oc1SCc1ccc(F)cc1	inconclusive: 3.55 µM [cytotoxic, full curve, poor fit]
COc1ccc(NC(=O)CSc2nc(-c3ccc(F)cc3)[nH]c2-c2ccc(C)cc2)cc1OC	inconclusive: 39.8 µM [cytotoxic, single point]
CCOc1ccc(NC(=O)c2cnc3ccccn3c2=O)cc1	inconclusive: 6.31 µM [rising, single point]
